Measured values: PubChem BioAssay AID1347165 (National Center for Advancing Translational Sciences (NCATS), 2019)
Among all 220,000 compounds or so, about 5,700 (2.6%) were called active. This list was built around the results that the source calls inconclusive (neither active nor inactive); the mix of calls is not that of the screen. Calls come from the whole dose curve; as a rule, active = well fitted inhibition curve with a large enough effect; inconclusive = small, poorly fitted or top-dose-only effect; inactive = no such curve, though single readings can be large or run the other way. Potencies beside an inconclusive call are fits to weak or partial responses and may not hold up.

target: Lysine-specific demethylase 5B (Homo sapiens) (UniProt Q9UGL1); experiment: Primary screen for KDM5B Histone Demethylases FDH-coupled qHTS; settings: FDH-coupled NADH fluorescence (FDH is formaldehyde dehydrogenase); activity change, negative = inhibition: at 57.7 µM (top of the series) unless noted; note: nearly all actives have a fitted effect of over 70% in size; for activity change, negative = inhibition: 0% is about no effect
Procedure, shortened: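 qHTS format, multiple compound concentrations. Buffer 50 mM HEPES pH 7.5/0.01% Tween-20; 200 nM KDM5BΔAP final; 10 min compound preincubation; substrate-mix levels 12.5 µM peptide, 25 µM α-KG, 0.25 mM NAD⁺; 30 min RT; ΔRFU.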
Potency is the fitted concentration of half-maximal effect; tags give direction and shape of the fitted curve.

UniProt Q9UGL1, sequence (Q9UGL1 whole entry, looked up): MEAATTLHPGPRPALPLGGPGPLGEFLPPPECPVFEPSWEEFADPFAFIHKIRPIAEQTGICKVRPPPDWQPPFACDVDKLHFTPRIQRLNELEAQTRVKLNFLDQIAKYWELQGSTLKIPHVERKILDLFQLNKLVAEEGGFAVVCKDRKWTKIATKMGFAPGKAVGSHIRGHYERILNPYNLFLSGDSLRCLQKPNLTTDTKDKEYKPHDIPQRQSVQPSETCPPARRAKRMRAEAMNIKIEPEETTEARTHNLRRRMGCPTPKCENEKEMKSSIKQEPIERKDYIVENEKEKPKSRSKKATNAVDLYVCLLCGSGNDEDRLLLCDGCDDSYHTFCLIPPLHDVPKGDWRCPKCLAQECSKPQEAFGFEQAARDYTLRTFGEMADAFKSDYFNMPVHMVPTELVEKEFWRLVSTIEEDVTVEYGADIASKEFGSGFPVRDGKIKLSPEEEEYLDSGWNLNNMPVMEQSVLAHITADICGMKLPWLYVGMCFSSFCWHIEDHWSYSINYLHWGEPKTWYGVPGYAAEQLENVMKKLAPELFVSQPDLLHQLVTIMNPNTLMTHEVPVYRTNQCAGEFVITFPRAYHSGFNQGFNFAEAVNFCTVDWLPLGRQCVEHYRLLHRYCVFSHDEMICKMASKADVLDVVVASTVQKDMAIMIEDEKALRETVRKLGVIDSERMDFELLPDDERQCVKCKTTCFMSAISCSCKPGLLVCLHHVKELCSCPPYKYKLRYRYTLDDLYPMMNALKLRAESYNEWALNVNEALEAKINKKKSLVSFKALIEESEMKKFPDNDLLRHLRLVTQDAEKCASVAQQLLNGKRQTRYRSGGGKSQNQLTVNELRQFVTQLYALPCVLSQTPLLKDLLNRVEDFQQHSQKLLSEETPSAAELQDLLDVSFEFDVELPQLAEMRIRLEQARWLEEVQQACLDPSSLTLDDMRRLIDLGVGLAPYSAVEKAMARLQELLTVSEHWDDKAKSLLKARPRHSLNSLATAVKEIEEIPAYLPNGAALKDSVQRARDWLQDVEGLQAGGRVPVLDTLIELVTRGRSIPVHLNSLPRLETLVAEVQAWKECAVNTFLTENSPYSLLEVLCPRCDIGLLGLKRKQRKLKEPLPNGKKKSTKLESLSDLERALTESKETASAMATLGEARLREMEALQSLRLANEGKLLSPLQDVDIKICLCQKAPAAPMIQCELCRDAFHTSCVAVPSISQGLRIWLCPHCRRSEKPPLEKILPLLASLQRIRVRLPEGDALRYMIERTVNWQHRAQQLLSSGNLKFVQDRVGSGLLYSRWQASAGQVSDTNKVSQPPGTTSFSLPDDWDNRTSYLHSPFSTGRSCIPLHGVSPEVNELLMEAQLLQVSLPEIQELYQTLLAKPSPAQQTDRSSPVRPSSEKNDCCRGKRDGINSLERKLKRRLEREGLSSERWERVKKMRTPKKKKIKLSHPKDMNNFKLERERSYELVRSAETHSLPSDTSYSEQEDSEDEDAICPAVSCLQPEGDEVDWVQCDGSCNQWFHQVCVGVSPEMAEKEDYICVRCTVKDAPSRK

SMILES | Potency | activity change, negative = inhibition
Cc1ccc(Nc2cc(C(=O)N3CCOCC3)c3ccccc3n2)cc1 | inactive | 
CCOc1ccccc1NC(=O)Cn1c(=O)n(-c2ccc(F)cc2)c(=O)c2sc3ccccc3c21 | inconclusive: 28.2 µM [inhibitor, partial curve, poor fit] | 
CC(=O)N1CCC([C@@H]2CN(Cc3ccc(C#N)cc3)C[C@H]2CO)CC1 | inconclusive: 25.1 µM [inhibitor, partial curve, poor fit] | 
COc1ccc(-c2cc(=O)n3c4ccccc4n(Cc4cccc(F)c4)c3n2)cc1 | inactive | 
CCOc1ccc(NC(=O)c2nn(C)c3c2CS(=O)(=O)c2ccccc2-3)cc1 | inconclusive: 6.31 µM [inhibitor, partial curve, poor fit] | 
COc1ccc(-c2onc(C)c2C(=O)NCCC(c2ccccc2)c2ccccc2)cc1 | inconclusive: 35.5 µM [inhibitor, single point] | 
Cc1ccccc1COc1ccc(C=O)cc1 | inconclusive: 15.8 µM [inhibitor, partial curve, poor fit] | 
CCC1CCCCN1C(=O)Cn1c(=O)n(-c2ccccc2)c(=O)c2sccc21 (stereo not given) | inconclusive: 28.2 µM [inhibitor, single point] | 
O=C(c1ccc(Cn2cccn2)o1)N1CCOCC(O)(CN2CCCC2)C1 (stereo not given) | inconclusive: 17.8 µM [inhibitor, partial curve, poor fit] | 
O=S(=O)(Nc1nc2ccccc2nc1Nc1ccc(F)c(Cl)c1)c1ccc(F)cc1 | inconclusive: 39.8 µM [inhibitor, single point] | 
COc1cccc(CNC(=O)c2cc(C)nc3ccc(C)cc23)c1 | inconclusive: 28.2 µM [inhibitor, partial curve, poor fit] | 
O=C(Cc1c[nH]c2ncc(-c3cccc(O)c3)cc12)N1CCOCC1 | inconclusive: 28.2 µM [inhibitor, partial curve, poor fit] | 
Cn1c(NCCO)nc2c(c1=O)C1(CCCCC1)Cc1ccccc1-2 | inconclusive: 39.8 µM [inhibitor, single point] | 
COc1ccc(CNC(=O)c2nc(-c3ccc4cc[nH]c4c3)no2)cc1 | inactive | 
CCS(=O)(=O)N1CCC(C(=O)Nc2ccc(OC)c(OC)c2)CC1 | inactive | 
CCOC(=O)c1c(NC(=O)COc2cc(C)ccc2C(C)C)sc(C)c1C | inconclusive: 14.1 µM [inhibitor, partial curve, poor fit] | 
O=C(CCC[C@H]1NC[C@@H]2C[C@H]1CN(Cc1ccccc1)C2)NCC1CC1 | inconclusive: 20 µM [inhibitor, partial curve, poor fit] | 
Cc1ccc(S(=O)(=O)c2cc3cc(C(=O)O)ccc3oc2=O)cc1 | inconclusive: 25.1 µM [inhibitor, single point] | 
O=C(N/N=C/c1ccc(-c2ccccc2)cc1)c1cccs1 | inactive | 
COc1ccc(C(=O)N2CC(Oc3ccc4c(c3)OCO4)C2)cc1 | inconclusive: 44.7 µM [inhibitor, partial curve, poor fit] | 
Fc1ccc(-c2nc3nccc(-c4ccsc4)n3n2)cc1Cl | inconclusive: 17.8 µM [inhibitor, single point] | 
CCC(CC)c1nnc(NC(=O)c2ccc3c(c2)OCO3)s1 | inconclusive: 25.1 µM [inhibitor, partial curve, poor fit] | 

SMILES | Potency | activity change, negative = inhibition
CSc1cccc(NC(=O)Nc2cccc(-c3ccc(N4CCOCC4)nn3)c2)c1 | inconclusive: 31.6 µM [inhibitor, single point] | 
COc1ccc2c(c1)CCN=C2C[C@H]1CN(C(=O)c2ccccc2)CC[C@H]1CC(=O)O | active: 28.2 µM | 
O=C(c1cnn2ncccc12)N1CCOCC1 | inactive | 
Cc1ccc(S(=O)(=O)CC(=O)Nc2sc3c(c2C#N)CCCC3)cc1 |  | inconclusive: -31.4% [inhibitor]
O=C(OCC(=O)N1CCOCC1)c1cc(-c2ccc(Cl)s2)nc2ccccc12 | inconclusive: 25.1 µM [inhibitor, partial curve, poor fit] | 
CCn1cc(CCC(=O)NCc2ccccc2OC)c2ccccc21 | inconclusive: 14.1 µM [inhibitor, partial curve, poor fit] | 
O=C1C=CC=C/C1=C\N(O)c1ccccc1 | inactive | 
Cc1ccc(S(=O)(=O)c2c(C)c(C)n(Cc3ccco3)c2N)cc1 | inconclusive: 25.1 µM [inhibitor, single point] | 
CCOC(=O)c1ccc(N2C(=O)c3n[nH]c(-c4ccco4)c3C2c2ccc(O)cc2)cc1 (stereo not given) | inconclusive: 15.8 µM [inhibitor, partial curve, poor fit] | 
COc1ccc(C)cc1NC(=O)c1c(C)oc2ncn(CC(C)C)c(=O)c12 | inconclusive: 31.6 µM [inhibitor, single point] | 
CN(Cc1ccc(C(=O)NCC(F)(F)F)cc1)C(=O)c1cc(F)cc(F)c1 | inactive | 
CCCCCOc1c(Cl)cc(C(=O)N(Cc2ccc(C)o2)C2CCS(=O)(=O)C2)cc1Cl (stereo not given) | inconclusive: 4.47 µM [inhibitor, partial curve, poor fit] | 
CCOC(=O)c1c(CSc2ccccc2)n(C)c2cc(Br)c(OCC(O)CNC3CCCCC3)cc12 (stereo not given) | inactive | 
CC(=O)c1ccc(OCC(=O)c2ccc3c(c2)OCO3)cc1 | inactive | 
COc1ccccc1/C=C/C=C1\Oc2cc(OS(C)(=O)=O)ccc2C1=O | inconclusive: 39.8 µM [inhibitor, single point] | 
CC(=O)N1CCN(C[C@@H]2C=C(C)[C@H](Cc3nnc(-c4ccncc4)o3)C[C@H]2C(C)C)CC1 | inconclusive: 31.6 µM [inhibitor, single point] | 
CC(=O)c1ccc2noc(-c3cccc(F)c3)c2c1 | inconclusive: 12.6 µM [inhibitor, partial curve, poor fit] | 
CC(O)CNS(=O)(=O)c1ccc(Oc2ccc(S(=O)(=O)NCC(C)O)cc2)cc1 (stereo not given) | inactive | 
CCOCc1ccc(CNC(=O)c2nccnc2N)cc1 | inconclusive: 25.1 µM [inhibitor, partial curve, poor fit] | 
COc1ccc(NC(=O)COC(=O)c2cc(=O)c3ccccc3o2)c(OC)c1 | inactive | 
O=C(c1cc2c(s1)-c1ccccc1OC2)N1CCN(c2ccccc2F)CC1 | inconclusive: 10 µM [inhibitor, partial curve, poor fit] | 
COc1ccc(OC)c(C(C)NC(=O)CC(C)(C)C)c1 (stereo not given) | inactive | 

SMILES | Potency | activity change, negative = inhibition
COc1ccccc1-c1nc2c(c(SCC(=O)Nc3ccc(C)c(C)c3)n1)Cc1c(CO)cnc(C)c1O2 | inconclusive: 15.8 µM [inhibitor, partial curve, poor fit] | 
O=C(Cn1cccc1-c1nc(-c2ccc(F)c(Br)c2)no1)NC1CCCC1 | inactive | 
CCNC(C(=O)c1c[nH]c2c(CC)cccc12)c1ccccc1 (stereo not given) | inconclusive: 39.8 µM [inhibitor, single point] | 
Cc1cc(NC(=O)C2CC2)sc1C(=O)NCc1ccc(Cl)cc1Cl | inactive | 
COc1ccccc1NC(=O)N1C[C@@H]2C[C@H](C1)c1c(/C=C/c3ccc(Cl)cc3)ccc(=O)n1C2 | inconclusive: 28.2 µM [inhibitor, partial curve, poor fit] | 
COCC1CN(C(C)=O)CC12CCN(Cc1cccc(Br)c1)CC2 (stereo not given) | inconclusive: 12.6 µM [inhibitor, partial curve] | 
COc1ccc(NC(=O)c2cc(S(=O)(=O)N3CCCCCC3)cn2C)cc1Cl | inconclusive: 44.7 µM [inhibitor, single point] | 
Cc1ccc(NC(=O)Cc2nc(-c3ccccc3)oc2C)nc1 | inactive | 
O=C(CCNS(=O)(=O)c1ccccc1)NC1CCCCCC1 | inactive | 
O=c1[nH]nc(-c2ccccc2)cc1-c1ccccc1 | inconclusive: 39.8 µM [inhibitor, single point] | 
CCN(C(=O)CCC(=O)N1CCC(C)(c2noc(-c3ccccn3)n2)CC1)c1ccccc1 | inactive | 
C=CCNC(=O)[C@@H]1CCCN1[C@@H](C(=O)NC)c1ccccc1OC | inconclusive: 35.5 µM [inhibitor, partial curve, poor fit] | 
CN(C)S(=O)(=O)c1cccc(NC(=O)CNC2CCCCC2)c1 | inconclusive: 20 µM [inhibitor, single point] | 
CCN1CCN(c2ccc(NC(=O)c3ccc(S(=O)(=O)NCc4ccco4)cc3)cc2)CC1 | inactive | 
COc1ccc(/C=C/C(=O)Nc2nc3n(n2)C(c2ccccc2)C=C(c2ccc(Cl)cc2)N3)cc1 (stereo not given) | inconclusive: 35.5 µM [inhibitor, single point] | 
COc1ccc2oc(C(=O)NC3=NCCS3)c(C)c2c1 | inconclusive: 28.2 µM [inhibitor, partial curve, poor fit] | 
CCn1c(=O)c2c(cc(C)n2C)n(CC(=O)Nc2ccccc2C)c1=O | inactive | 
CC(=O)N1CCN(c2ncnc3c2CN(c2ccc([N+](=O)[O-])cc2)C(=O)N(C)C3)CC1 | inconclusive: 15.8 µM [inhibitor, partial curve] | 
O=C(O)C[C@@H]1CCN(C(=O)c2cccs2)C[C@@H]1CCN1C[C@@H]2C[C@H](C1)c1cccc(=O)n1C2 | inconclusive: 14.1 µM [inhibitor, partial curve, poor fit] | 
CC1CCN(C2CCN(C(=O)c3ccccc3F)CC2)CC1 | inconclusive: 15.8 µM [inhibitor, partial curve, poor fit] | 
CCOc1ccccc1CNC(=O)c1ccc(NC(=O)N2CCSc3ncccc32)cc1 | inconclusive: 35.5 µM [inhibitor, partial curve, poor fit] | 
